Data on 153 variants can be found in a collection of fitness landscapes (doi:10.1126/science.1257360).

Some of the results follow.

First the molecules themselves.
B1: PhoQ; a variant is named by its letters at X, in order, P23837 (parent)
chain: MKKLLRLFFPLSLRVRFLLATAAVVLVLSLAYGMVALIGYSVSFDKTTFRLLRGESNLFYTLAKWENNKLHVELPENIDKQSPTMTLIYDENGQLLWAQRDVPWLMKMIQPDWLKSNGFHEIEADVNDTSLLLSGDHSIQQQLQEVREDDDDAEMTHSVAVNVYPATSRMPKLTIVVVDTIPVELKSSYMVWSWFIYVLSANLLLVIPLLWVAAWWSLRPIEALAKEVRELEEHNRELLNPATTRELTSLVRNLNRLLKSERERYDKYRTTLTDLTHSLKTPLXXLQXXLRSLRSEKMSVSDAEPVMLEQISRISQQIGYYLHRASMRGGTLLSRELHPVAPLLDNLTSALNKVYQRKGVNISLDISPEISFVGEQNDFVEVMGNVLDNACKYCLEFVEISARQTDEHLYIVVEDDGPGIPLSKREVIFDRGQRVDTLRPGQGVGLAVAREITEQYEGKIVAGESMLGGARMEVIFGRQHSAPKDE

The variants in the test derive from B1. Briefly: enrichment ratio after two sorts for PhoP signalling (ratio (wild type AVST 3.29)); higher = more functional. As to conditions: with PhoP (E. coli).
For the variant VKIH, the enrichment ratio was no more than 0.25. In the case of LTAS, the enrichment ratio was no more than 0.25. Then FARW, with no more than 0.25; and KTID, with no more than 0.25. Take GLCG: the enrichment ratio turned out to be 9.3. The result for VLSK reads no more than 0.25; that for TPMQ, no more than 0.25. The result for DPYY reads no more than 0.25.

As to SEWK, the enrichment ratio is no more than 0.25.

For the variant NIPG, the enrichment ratio is no more than 0.25. Then NYII, with no more than 0.25. The result for SQGR reads no more than 0.25.

For HTLD, the enrichment ratio was no more than 0.25. The result for HWFF reads no more than 0.25; that for GMEL, no more than 0.25. Then GRNC, with no more than 0.25; and EHYG, with no more than 0.25; and TYAR, with no more than 0.25. Then TDAN, with no more than 0.25; and WRYV, with no more than 0.25. As to PREV, the enrichment ratio is no more than 0.25. With FWMI, the enrichment ratio is no more than 0.25. The result for LFNP reads no more than 0.25. The result for EGMV reads no more than 0.25; that for VRHE, no more than 0.25; that for TCCR, 13.1. Then NACR, with no more than 0.25; and YTYP, with no more than 0.25; and TPTW, with no more than 0.25.

AYHF: the enrichment ratio was no more than 0.25.

For DECQ, the enrichment ratio was no more than 0.25. The result for AVQG reads no more than 0.25; that for PMLL, no more than 0.25. For AEDQ, the enrichment ratio was no more than 0.25. Then KVYK, with no more than 0.25; and VYIM, with no more than 0.25; and EMDP, with no more than 0.25. Then FSSY, with 0.259; and LKGQ, with no more than 0.25. The result for RAAD reads no more than 0.25; that for FWLV, no more than 0.25.

NGWW: the enrichment ratio was no more than 0.25. The result for VGFF reads no more than 0.25; that for IEMW, no more than 0.25.

Regarding LSLR, the enrichment ratio is no more than 0.25. Then NEFM, with no more than 0.25; and FHLA, with no more than 0.25; and IAKS, with no more than 0.25. Then AWNA, with no more than 0.25; and WYQS, with no more than 0.25.

Consider TTTC, for which the enrichment ratio came to 5.52. On to TGFL, for which the enrichment ratio turned out to be 1.48. Then IYTA, with no more than 0.25; and RELT, with no more than 0.25; and NQPW, with no more than 0.25.

On to WKQY, for which the enrichment ratio was no more than 0.25.

As to WTSQ, the enrichment ratio is no more than 0.25. The result for DDCI reads no more than 0.25. Then SNHK, with no more than 0.25; and TNKP, with no more than 0.25; and GWSD, with no more than 0.25. Then FTHF, with no more than 0.25; and FPAT, with no more than 0.25; and PAKF, with no more than 0.25. Turning to YDGS, the enrichment ratio was no more than 0.25.

Regarding NMMC, the enrichment ratio was no more than 0.25.

On to PHAS, for which the enrichment ratio is no more than 0.25. The result for NSER reads no more than 0.25. The result for DKVQ reads no more than 0.25; that for FVIS, no more than 0.25. The result for MESL reads 13.9. In the case of MSLT, the enrichment ratio turned out to be 4.06.

Take HKSF: the enrichment ratio is no more than 0.25. Then RSWE, with no more than 0.25. Then EWIH, with no more than 0.25; and FTHI, with no more than 0.25; and YHLD, with no more than 0.25. The result for QIHI reads no more than 0.25. QHTV: the enrichment ratio was no more than 0.25. The result for AMWI reads no more than 0.25; that for ESSP, no more than 0.25; that for SPPN, no more than 0.25. Then DRLE, with no more than 0.25; and MTSH, with 0.592; and SQIY, with 7.92. The result for SGPN reads no more than 0.25; that for RVTD, no more than 0.25. On to ATAG, for which the enrichment ratio was no more than 0.25. Then MSIC, with no more than 0.25; and PVWC, with no more than 0.25; and DNFH, with no more than 0.25.

On to PFMM, for which the enrichment ratio was no more than 0.25. For THFV, the enrichment ratio came out at 1.1. The result for HMRD reads no more than 0.25; that for PHHE, no more than 0.25; that for LADQ, no more than 0.25. The result for AGWP reads no more than 0.25. On to ETAY, for which the enrichment ratio was no more than 0.25. The result for HMPI reads no more than 0.25. Then NTII, with no more than 0.25; and QAQL, with no more than 0.25.

In the case of GEDN, the enrichment ratio was no more than 0.25. The result for QQRS reads no more than 0.25; that for DNDD, no more than 0.25; that for SYIR, no more than 0.25. Regarding VVGD, the enrichment ratio is no more than 0.25.

As to AYDG, the enrichment ratio was no more than 0.25.

As to WRFH, the enrichment ratio is no more than 0.25.

As for QQAT, the enrichment ratio is no more than 0.25. Then APGQ, with no more than 0.25; and RQMS, with no more than 0.25; and LHHG, with no more than 0.25. Take LIGN: the enrichment ratio is no more than 0.25.

In the case of AHQH, the enrichment ratio was no more than 0.25. For GECK, the enrichment ratio is no more than 0.25.

For LYCA, the enrichment ratio was no more than 0.25.

For the variant YELN, the enrichment ratio worked out at 2.61.

As for YVGR, the enrichment ratio is no more than 0.25. Then PQKG, with no more than 0.25. For the variant HGLK, the enrichment ratio is no more than 0.25.

Consider SQVC, for which the enrichment ratio was 9.75. The result for WKTL reads no more than 0.25. Then MDFL, with no more than 0.25.

Consider FSDM, for which the enrichment ratio was no more than 0.25. The result for AHQF reads no more than 0.25; that for TWKD, no more than 0.25. Then HAMC, with no more than 0.25; and NADM, with no more than 0.25; and MVAG, with 12.7. Then KIQY, with no more than 0.25.

Take EFTF: the enrichment ratio is no more than 0.25. Then RCKD, with no more than 0.25. Consider NEYR, for which the enrichment ratio is no more than 0.25. The result for DQQG reads no more than 0.25; that for PNGC, no more than 0.25; that for IWWI, no more than 0.25. The result for QFKV reads no more than 0.25.

As for LTWA, the enrichment ratio is no more than 0.25. The result for AANH reads no more than 0.25; that for KESM, no more than 0.25; that for FRQY, no more than 0.25. The result for KDAA reads no more than 0.25; that for TFEA, no more than 0.25; that for FLWN, no more than 0.25. On to ASLK, for which the enrichment ratio amounted to 8.78. Then NTGN, with no more than 0.25; and DQYL, with no more than 0.25. The result for LNFF reads no more than 0.25; that for YTFF, no more than 0.25; that for HKMA, no more than 0.25. Then YCWT, with no more than 0.25.

Take PCMD: the enrichment ratio is no more than 0.25.

RMGN: the enrichment ratio was no more than 0.25.
